Measurements from patent publication US20210236649A1 (ICONIC THERAPEUTICS, published 2021).

Tests used:
[1] = molecular target: T1, Lipidated rabbit tissue factor (rabbit, UniProt P24055 33-292, limits assumed); experiment: SPR (Biacore 3000), lipidated rabbit TF amine-coupled, analyte 0-500 nM, 37 C
T1 construct: Amine-coupled as a proteoliposome to flow cell 2 of the Biacore chip; Also used to start thrombin generation in rabbit plasma; also called rTF; rabbit TF
T1 sequence (looked up): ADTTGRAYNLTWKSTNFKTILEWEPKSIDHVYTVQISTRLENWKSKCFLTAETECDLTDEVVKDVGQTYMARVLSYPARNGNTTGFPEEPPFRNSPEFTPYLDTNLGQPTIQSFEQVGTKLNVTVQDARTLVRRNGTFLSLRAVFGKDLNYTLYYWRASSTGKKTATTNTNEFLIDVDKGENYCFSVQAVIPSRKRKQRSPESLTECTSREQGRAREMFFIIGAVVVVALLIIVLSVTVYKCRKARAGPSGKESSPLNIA
Experimental: (§1) The GE procedure for proteoliposome immobilization (amine coupling) protocol was used to coat PS/PC/rTF on flow cell 2, and PS/PC/hTF on flow cell 3. Flow cells were equilibrated with running buffer (15 mM Hepes, 150 mM NaCl, 5 mM CaCl2, 25 mM Arginine, 0.01% Tween 80, pH7.4) at a flow rate of 5 μL/min. Kinetic analyses were performed at 37° C. by flowing consecutively increasing concentrations of each analyte […] in the running buffer (15 mM. HEPES, 150 mM NaCl, 5 mM CaCl2, 25 mM Arginine, 0.01% Tween 80, pH 7.4) over the sensor chip for 5 min followed by a 10 min dissociation period at a flow rate of 30 μL/min in parallel.
(§2) Analyte binding to the lipidated TF was determined by subtracting the RU values noted in the reference flow cell 1 from flow cell 2 and 3. Binding of analytes to the TFs was monitored in real time to obtain on (ka) and off (kd) rates. The equilibrium dissociation constant (KD) was calculated from the observed ka and kd.
(§3) Based on the saturation concentration of the analyte, binding analysis was performed using saturating analyte concentrations of 0-500 nM for rabbit TF and 0-50 nM for human TF. Chi squared (χ²) analysis was carried out between the actual sensorgram and the calculated on- and off-rates to determine the accuracy of the analysis.

[2] = molecular target: T2, Lipidated human tissue factor (human, UniProt P13726 33-295); experiment: SPR (Biacore 3000), lipidated human TF amine-coupled, analyte 0-50 nM, 37 C
T2 construct: also called hTF; human TF
Experimental: as §1, §2, §3

[3] = molecular target: T1, Lipidated rabbit tissue factor; experiment: SPR (Biacore 3000), lipidated rabbit TF on chip
Experimental: as §1, §2, §3

[4] = molecular target: T2, Lipidated human tissue factor; experiment: SPR (Biacore 3000), lipidated human TF on chip
Experimental: as §1, §2, §3

Kd [1]: 53 nM | koff [1]: 0.003 s⁻¹ | kon [1]: 56000 M⁻¹ s⁻¹ | Ka [2]: 1.1e+09 M⁻¹ | koff [2]: 0.00055 s⁻¹ | kon [2]: 620000 M⁻¹ s⁻¹ | Kd [3]: 53.2 nM | Kd [4]: 0.892 nM
B1: hI-con1 (Homo sapiens factor VII active site mutant immunoconjugate; mutated human factor VIIa conjugated to human IgG1 Fc) (Fc fusion)
chain: ANAFLEELRPGSLERECKEEQCSFEEAREIFKDAERTKLFWISYSDGDQCASSPCQNGGSCKDQLQSYICFCLPAFEGRNCETHKDDQLICVNENGGCEQYCSDHTGTKRSCRCHEGYSLLADGVSCTPTVEYPCGKIPILEKRNASKPQGRIVGGKVCPKGECPWQVLLLVNGAQLCGGTLINTIWVVSAAHCFDKIKNWRNLIAVLGEHDLSEHDGDEQSRRVAQVIIPSTYVPGTTNHDIALLRLHQPVVLTDHVVPLCLPERTFSERTLAFVRFSLVSGWGQLLDRGATALELMVLNVPRLMTQDCLQQSRKVGDSPNITEYMFCAGYSDGSKDSCAGDSGGPHATHYRGTWYLTGIVSWGQGCATVGHFGVYTRVSQYIEWLQKLMRSEPRPGVLLRAPFPGSA[gap - human IgG1 Fc]
notes: also called immunoconjugate dimer
